Results reported in PubChem BioAssay AID1240 (Sanford-Burnham Center for Chemical Genomics, 2008).
The campaign covered roughly 50,000 compounds. About 800 (1.6%) showed an effect of 50% or more. Some of the results follow.

target: Bcl-2-like protein 10 (Homo sapiens) (UniProt Q9HD36); test: TR3 peptide-Bcl-B binding displacers, biochemical primary FP assay, phenotype converters (AID 1240); conditions: GST-Bcl-B / FITC-TR3 peptide fluorescence polarization; stronger effect = higher value; compound at 3.75 mg/L;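 further: 0% = Bcl-B with tracer peptide and DMSO and 100% = tracer peptide lacking Bcl-B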
Sequence of UniProt Q9HD36 (Q9HD36 whole entry, looked up): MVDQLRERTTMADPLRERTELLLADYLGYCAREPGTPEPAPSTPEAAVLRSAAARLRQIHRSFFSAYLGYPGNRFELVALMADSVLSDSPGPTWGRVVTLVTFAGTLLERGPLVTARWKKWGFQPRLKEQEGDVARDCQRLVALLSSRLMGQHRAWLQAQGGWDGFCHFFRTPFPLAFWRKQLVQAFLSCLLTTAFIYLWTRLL

Row | Compound | displacement
1 | CCC(=O)Nc1sc2c(c1C(=O)Nc1ccc(OC)cc1)CCCC2 | 2%
2 | O=C(NCC1c2ccccc2CCN1C(=O)c1ccccc1)c1ccccc1 (centres undefined) | -1.9%
3 | O=C(O)c1cc(-c2ccccc2Cl)nc2ccccc12 | 0.7%
4 | COc1cccc(OCCCCOc2ncnc3ccccc23)c1 | -10%
5 | O=C1c2ccc(S(=O)(=O)c3ccc4c(c3)C(=O)N(Cc3cccnc3)C4=O)cc2C(=O)N1Cc1cccnc1 | 9.4%
6 | O=C1/C(=C\c2cccnc2)CN(Cc2ccccc2)C/C1=C\c1cccnc1 | 1.8%
7 | Cc1ccc([N+](=O)[O-])cc1Cc1c(F)cc(F)cc1F | 2.2%
8 | O=C(N/N=C/c1cc(Cl)ccc1OCc1c(F)cccc1Cl)c1cccnc1 | -2%
9 | O=C(Nc1ccc(C(F)(F)F)cc1)c1ccc2c(c1)C(=O)N(CC1CCCO1)C2=O (centres undefined) | -0.2%
10 | C=CCc1c(C)nc(-c2ccccc2)nc1NN | -36.3%
11 | COc1ccc(-c2nc3cc(NC(=O)COc4ccccc4[N+](=O)[O-])ccc3o2)cc1Cl | -8.2%
12 | O=C1NC(=S)S/C1=C\c1ccccc1[N+](=O)[O-] | -4%
13 | COc1c(Cl)cc(C(=O)Nc2cc(C)ccn2)cc1Cl | -5.8%
14 | O=C(CCCN1C(=O)c2cccc3cccc(c23)C1=O)N1CCN(c2ccccc2)CC1 | 8.3%
15 | CCN1C(=O)/C(=C\c2cc(Br)c(OCc3ccccc3F)c(OC)c2)SC1=S | 22.5%
16 | COc1ccc([N+](=O)[O-])cc1NCc1cccnc1 | 3.1%
17 | COc1cccc2c1NC(c1ccc(F)cc1)C1CC=CC21 (centres undefined) | 17.6%
18 | Nc1nnc(SCC(=O)N2c3ccccc3CCc3ccccc32)s1 | 8.8%
19 | CCOc1ccccc1NC1=C(Cl)C(=O)N(c2ccc(Br)cc2)C1=O | 9.1%
20 | Cc1ccc(C(=O)Nc2ccc(C(=O)OCC(C)C)cc2)cc1[N+](=O)[O-] | -5.3%
21 | Cc1onc(-c2c(Cl)cccc2Cl)c1C(=O)N1CCCC1 | 11.7%
22 | C=COCCNC(=O)C(=O)Nc1ccc(CC)cc1 | 11.9%

Row | Compound | displacement
23 | Cc1ccc(C(=O)Nc2cccc(NC(=O)c3cccc(Cl)c3)c2)cc1 | -0.2%
24 | Cc1ccc(NC(=O)/C(=C\c2ccco2)NC(=O)c2ccccc2I)cc1 | 3.4%
25 | CCOC(=O)C1=C(C)NC(=O)NC1c1cc(Br)c(O)c(OC)c1 (centres undefined) | 0.6%
26 | Cc1cc(C(=O)N/N=C/c2c(Cl)cccc2Cl)n[nH]1 | -5.4%
27 | COc1ccc(S(=O)(=O)N2CCN(Cc3ccccc3C(F)(F)F)CC2)cc1 | 8.1%
28 | CC1=NNC(=O)C1CCC(=O)N/N=C/C(Br)=C/c1ccccc1 (centres undefined) | -8.4%
29 | COc1ccc(N2C(=O)C3C(c4ccccc4Cl)OC4(C(=O)c5ccccc5C4=O)C3C2=O)c(OC)c1 (centres undefined) | 12.5%
30 | O=C(CN1C(=O)/C(=C/c2ccccc2)SC1=S)Nc1cc([N+](=O)[O-])ccc1O | 9.6%
31 | O=C(/C=C/c1ccccc1)N1CCN(c2ccc(Cl)cc2)CC1 | -9.3%
32 | COc1ccc(-c2cc(C(=O)NCc3ccc(C)cc3)c3ccccc3n2)cc1 | -4.4%
33 | CCOc1cc(/C=C2/SC(N)=NC2=O)ccc1OCc1ccc(F)cc1 | -15.9%
34 | Cc1nc(CN2C(=O)c3ccccc3C2=O)cs1 | -3.5%
35 | CCN1C(=O)/C(=C/c2c(F)cccc2Cl)SC1=S | 8.8%
36 | C=CCN1C(=O)OC2(CCCCC2)C1(C)O (centres undefined) | -2.5%
37 | Cc1nn(C(CC(=O)O)C(=O)O)c(C)c1I (centres undefined) | -2.7%
38 | COc1ccc(/C=C/C(=O)C2(C)CCCCC2)cc1 | -6.5%
39 | CCOC(=O)c1c(NC(=O)COC(=O)C(CCSC)NC(C)=O)sc2c1CCCC2 (centres undefined) | 12.2%
40 | CCOC(=O)c1ccc(NC(=O)CN(c2cccc(C(F)(F)F)c2)S(C)(=O)=O)cc1 | -6.2%
41 | CCOC(=O)c1c[nH]n(-c2nc(-c3ccccc3)cs2)c1=O | 7.3%
42 | Cc1ccc(C2(c3ccc(C)cc3)CC2C(=O)Nc2ccccc2[N+](=O)[O-])cc1 (centres undefined) | 11.2%
43 | O=C(NCCOc1ccccc1)c1cccc(C(=O)NCCOc2ccccc2)c1 | 8.1%
44 | COC(=O)c1ccc(COc2cc3oc(=O)cc(-c4ccccc4)c3cc2Cl)cc1 | 8.1%

Row | Compound | displacement
45 | CCOC(=O)C(=CNc1ccccc1O)C(=O)OCC | -0.7%
46 | O=C(O)CCCCCN1C(=O)C(=O)/C(=C(/O)c2ccc(F)cc2)C1c1ccc(F)cc1 (centres undefined) | -1.5%
47 | C/C(=N/NC(=O)c1ccccc1)c1ccc2c3c(cccc13)CC2 | -11.5%
48 | Cc1ccc(NC(=O)C2CC(=O)N(c3ccc(Br)cc3)C2)cc1Cl (centres undefined) | 9.4%
49 | CCOc1cc(/C=C2/C=C(c3ccc(OC)cc3)OC2=O)cc(I)c1OC | -6%
50 | O=C(Nc1sc2c(c1C(=O)O)CCCCC2)c1ccccc1F | -9.2%
51 | Cc1cc(/C=N/NC(N)=S)c(C)n1C1CCCCC1 | -10.3%
52 | COc1ccccc1Cc1noc(-c2ccc(Cl)cc2)n1 | 4.9%
53 | O=C(Nc1ccncc1)c1ccc2c(c1)OCCO2 | 12.1%
54 | C#CCOc1ccc(C2C(C(=O)OC)=C(C)NC3=C2C(=O)c2ccccc23)cc1 (centres undefined) | 4.9%
55 | Cc1cc(=O)[nH]c(N/N=C/c2ccccc2[N+](=O)[O-])n1 | -6.5%
56 | Cc1ccc(-c2cc3nc(C)cc(C)n3n2)cc1 | 8.2%
57 | CC(C)COc1ccc(C(=O)NCCc2c[nH]c3ccccc23)cc1 | 0.1%
58 | O=C(COc1ccc(Cl)cc1)NNC(=O)C(=O)N1CCCCC1 | -8.4%
59 | COc1ccc(NC(=O)c2sc3cc(C)ccc3c2Cl)cc1 | 3.5%
60 | CC(C)(C)c1ccc(OCC(=O)NNC(=O)C(=O)N2CCCC2)cc1 | -20%
61 | O=C(Nc1ccc(Cc2ccncc2)cc1)c1cccc([N+](=O)[O-])c1 | 13.6%
62 | CCOc1ccc(C(=O)Nc2ccc3oc(-c4ccc(OC)c(Cl)c4)nc3c2)cc1 | 4.6%
63 | COC(=O)C1=C(C)N(c2cccc(C)c2)C(=O)/C1=C\c1ccc(O)cc1 | -3.2%
64 | O=C(O)C(Cc1ccccc1)N1C(=O)/C(=C/c2ccccc2Cl)SC1=S (centres undefined) | 5.2%
65 | CC(C(=O)NCCc1ccccc1)N1C(=O)c2ccccc2C1=O (centres undefined) | 3.3%
66 | O=C1C(=O)N(c2cccnc2)C(c2ccc([N+](=O)[O-])cc2)/C1=C(\O)c1ccc(Cl)cc1 (centres undefined) | -12.7%

Row | Compound | displacement
67 | COc1ccc(CN2CCN(C(=O)c3ccc(F)cc3)CC2)cc1OCc1ccccc1 | 12.7%
68 | CC1=C(C(=O)OC2CCCC2)C(c2ccc(I)cc2)C2=C(CC(C)(C)CC2=O)N1 (centres undefined) | -2.3%
69 | CC(C)C(=O)NNC(=O)COc1ccc(Cl)cc1 | -6.7%
70 | CCOc1ccccc1NC(=O)c1c(NC(=O)c2ccco2)sc2c1CCC(C)C2 (centres undefined) | -7.1%
71 | CC(=O)NS(=O)(=O)c1ccc(NC(=O)c2ccc([N+](=O)[O-])cc2)cc1 | -13.3%
72 | CC(C)(C)C1=CC(=Nc2ccc3c(c2)OCCO3)C=C(C(C)(C)C)C1=O | -0.3%
73 | CCc1ccc(N2CC(C(=O)Nc3ccc(Cl)cc3Cl)CC2=O)cc1 (centres undefined) | 9.5%
74 | CC1=C(C(=O)OCC(Cl)(Cl)Cl)C(c2ccccc2F)NC(=O)N1 (centres undefined) | 7.8%
75 | CCOc1ccccc1NC(=O)c1c(NC(=O)Cc2ccc(OC)cc2)sc2c1CCC(C)C2 (centres undefined) | -3.9%
76 | C=CCNCCCCOc1cc(C)c(Cl)c(C)c1 | 4.8%
77 | O=C(Nc1ccc(I)cc1Cl)C(c1ccccc1)c1ccccc1 | -5.2%
78 | Cc1ccc(S(=O)(=O)N/N=C/c2ccccc2OS(=O)(=O)c2ccc([N+](=O)[O-])cc2)cc1 | -9.6%
79 | COc1ccc(Br)cc1CN1CCN(Cc2ccncc2)CC1 | -16.3%
80 | CCOc1ccc(NC(=O)CN(c2ccc(Cl)cc2)S(C)(=O)=O)cc1 | 2.8%
81 | COc1ccc(/C(C)=N\NC(=O)c2ccc([N+](=O)[O-])cc2)cc1OC | 6.7%
82 | O=C(O)CCN1C(=O)/C(=C/c2cccc3ccccc23)SC1=S | 22.4%
83 | O=[N+]([O-])c1ccc(Oc2ccc(S(=O)(=O)Nc3ccccn3)cc2)cc1 | 1.7%
84 | Cn1c(=O)c2c(ncn2CC(=O)N2CCc3ccccc3C2)n(C)c1=O | -1%
85 | Cc1cc([N+](=O)[O-])ccc1-c1ccc(CO)o1 | 12.9%
86 | CC12c3ccccc3C(c3ccccc31)C1C(=O)N(Cc3cccnc3)C(=O)C12 (centres undefined) | -9.9%
87 | O=c1oc(-c2ccco2)nc2ccc(Cl)cc12 | 13.6%
88 | S=C(c1cccc(OCc2ccccc2)c1)N1CCOCC1 | 11%

Row | Compound | displacement
89 | CCN(CCN)c1ccc2c(=O)[nH][nH]c(=O)c2c1 | 6.8%
90 | Cc1ccc(OCCCCN2CCC(C)CC2)cc1C | -7.7%
91 | O=C(CN(c1ccccc1)S(=O)(=O)c1ccccc1)NCc1ccncc1 | 12.9%
92 | COc1cccc(C(=O)Nc2ccc(Br)cc2C(=O)O)c1 | 13.1%
93 | CCc1ccc(-c2csc(N3N=C(c4cccs4)CC3c3ccc(F)cc3)n2)cc1 (centres undefined) | 0.2%
94 | CC(C)c1ccc(NC(=O)C(=O)NCCCO)cc1 | -10.4%
95 | O=C(COc1ccc(Cl)cc1)Nc1nc(-c2ccc(Cl)cc2)cs1 | 8.6%
96 | CN(C1=NC(=O)/C(=C\c2ccc(F)cc2)S1)c1ccc(O)cc1 | 11.4%
97 | COC(=O)c1ccc(-c2ccc(/C=C3/SC(=S)N(Cc4ccccc4)C3=O)o2)cc1 | 7.1%
98 | Cc1ccc(C2CC(C(F)(F)F)n3nc(C(=O)Nc4ccc(C(C)O)cc4)cc3N2)cc1 (centres undefined) | 1.8%
99 | OCC1(CO)COC(c2ccccc2)=N1 | 9%
100 | Cc1cc(Cl)ccc1OCC(=O)Nc1ccccc1CO | 8.1%
101 | CCOC(=O)C1=NN(C(=O)Cc2ccccc2)C(O)(c2ccc(Cl)cc2)C1 (centres undefined) | -6.4%
102 | Brc1ccc2c(c1)Nc1nc3nonc3nc1N2 | 3.9%
103 | C=C(C)c1cccc(C(C)(C)NC(=O)N2CCc3ccccc32)c1 | -1.6%
104 | CS(=O)(=O)N(Cc1ccc(Cl)cc1)c1ccc(C(=O)Nc2ccc(Cl)cc2)cc1 | -7.1%
105 | Oc1ccccc1C1OCC2(CO1)COC(c1ccccc1O)OC2 (centres undefined) | 3%
106 | CCSc1nc2ccc(N)cc2s1 | 2.8%
107 | O=C(Nc1ccccc1C1CC1)c1ccccc1 | 2.8%
108 | CC(C)(O)C#Cc1ccc(C(=O)Nc2ccc(F)cc2)cc1 | 3.9%
109 | CC1=C(C(=O)OCCc2ccccc2)C(c2ccc(C)s2)NC(=O)N1 (centres undefined) | -9.8%
